The supplement of paper PMC8007513
Structures can show the parent of a compound that is named as a salt. ± gives the standard error. The campaign covered roughly 1,300 compounds. About 130 (10%) showed an effect of 50% or more. This is a selection; strong and weak results do not stand in their true shares.

Tested on: Trichoderma virens ATCC 9645
Assay: growth yield (OD600) with compound + IPBC relative to untreated control; higher = less growth inhibition
Conditions: compound concentration: 100 uM, IPBC concentration: 200 ng/ml
Summary of the method: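 Library compounds (100 μM final), with or without a co-applied biocide (200 ng ml^−1), were added to 100 μl aliquots of Trichoderma virens ATCC 9645 spores at 15,000 spores ml^−1 in potato dextrose broth. Cultures were grown at 30 °C in 96-well plates, and OD600 was measured at 40 h and 72 h. Each growth value is a mean of duplicate screens, expressed relative to the control with neither agent.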

| SMILES | growth yield (40 h) [%] | growth yield (72 h) [%] |
| --- | --- | --- |
| C1CCC(C(CC2CCCCN2)C2CCCCC2)CC1 (stereo not given) [Perhexiline maleate] + CCCCNC(=O)OCC#CI [3-iodo-2-propynyl butylcarbamate (IPBC)] | 40.981 ± 7.1e-15 | 85.27 ± 0.32 |
| CCc1nc(N)nc(N)c1-c1ccc(Cl)cc1 [Pyrimethamine] + CCCCNC(=O)OCC#CI [3-iodo-2-propynyl butylcarbamate (IPBC)] | 87.84 ± 0.48 | 95.4 ± 2.3 |
| CC(=O)[C@@]1(O)CC[C@H]2[C@@H]3C[C@H](C)C4=CC(=O)C=C[C@]4(C)[C@@]3(F)[C@@H](O)C[C@@]21C [Fluorometholone] + CCCCNC(=O)OCC#CI [3-iodo-2-propynyl butylcarbamate (IPBC)] | 91.3 ± 9.1 | 88.7 ± 5 |
| COc1cc(C(=O)NCc2ccc(OCCN(C)C)cc2)cc(OC)c1OC [Trimethobenzamide hydrochloride] + CCCCNC(=O)OCC#CI [3-iodo-2-propynyl butylcarbamate (IPBC)] | 90.2 ± 1.3 | 91.3 ± 2.8 |
| CCOc1nc2cccc(C(=O)OCc3oc(=O)oc3C)c2n1Cc1ccc(-c2ccccc2-c2noc(=O)[nH]2)cc1 [Azilsartan kamedoxomil] + CCCCNC(=O)OCC#CI [3-iodo-2-propynyl butylcarbamate (IPBC)] | 110 ± 5.1 | 105 ± 2.7 |
| Cc1ccc(NC(=O)c2ccc(CN3CCN(C)CC3)cc2)cc1Nc1nccc(-c2cccnc2)n1 [Imatinib] + CCCCNC(=O)OCC#CI [3-iodo-2-propynyl butylcarbamate (IPBC)] | 118 ± 7.6 | 115 ± 2.6 |
| CCN[C@@H](C)Cc1cccc(C(F)(F)F)c1 [Dexfenfluramine hydrochloride] + CCCCNC(=O)OCC#CI [3-iodo-2-propynyl butylcarbamate (IPBC)] | 87 ± 1.6 | 91.2 ± 1.5 |
| CCOC(=O)O[C@]1(C(=O)OCCl)CC[C@H]2[C@@H]3CCC4=CC(=O)C=C[C@]4(C)[C@H]3[C@@H](O)C[C@@]21C [Loteprednol etabonate] + CCCCNC(=O)OCC#CI [3-iodo-2-propynyl butylcarbamate (IPBC)] | 98.64 ± 0.16 | 98.1 ± 2 |
| Clc1ccc(C(Cn2ccnc2)OCc2ccsc2Cl)c(Cl)c1 (stereo not given) [Tioconazole] + CCCCNC(=O)OCC#CI [3-iodo-2-propynyl butylcarbamate (IPBC)] | 3.65 ± 0.16 | 2.52 |
| CCCC1C(=O)N2C(N(C)C)=Nc3ccc(C)cc3N2C1=O (stereo not given) [Azapropazone] + CCCCNC(=O)OCC#CI [3-iodo-2-propynyl butylcarbamate (IPBC)] | 85.8 ± 9.5 | 91.8 ± 3.5 |
| C[C@](N)(Cc1ccc(O)c(O)c1)C(=O)O [Methyldopa (L,-)] + CCCCNC(=O)OCC#CI [3-iodo-2-propynyl butylcarbamate (IPBC)] | 91.5 ± 2.5 | 96.4 ± 2.4 |
| c1cnc(N2CCN(Cc3ccc4c(c3)OCO4)CC2)nc1 [Piribedil hydrochloride] + CCCCNC(=O)OCC#CI [3-iodo-2-propynyl butylcarbamate (IPBC)] | 116 ± 13 | 108 ± 9.8 |
| C[C@H]1c2cccc(O)c2C(=O)C2=C(O)[C@]3(O)C(=O)C(C(N)=O)=C(O)[C@@H](N(C)C)[C@@H]3[C@@H](O)[C@@H]21 [Doxycycline hydrochloride] + CCCCNC(=O)OCC#CI [3-iodo-2-propynyl butylcarbamate (IPBC)] | 77.2 ± 0.64 | 82.3 ± 1.6 |
| Cc1c(-c2ccccc2)oc2c(C(=O)OCCN3CCCCC3)cccc2c1=O [Flavoxate hydrochloride] + CCCCNC(=O)OCC#CI [3-iodo-2-propynyl butylcarbamate (IPBC)] | 96.1 ± 9.4 | 106 ± 1.9 |
| Cc1onc(-c2ccccc2Cl)c1C(=O)N[C@@H]1C(=O)N2[C@@H]1SC(C)(C)[C@@H]2C(=O)O [Cloxacillin sodium salt] + CCCCNC(=O)OCC#CI [3-iodo-2-propynyl butylcarbamate (IPBC)] | 85.46 ± 0.32 | 94.5 ± 1.4 |
| N[C@@H](C(=O)N[C@@H]1C(=O)N2C(C(=O)O)=C(Cl)CC[C@H]12)c1ccccc1 [Loracarbef] + CCCCNC(=O)OCC#CI [3-iodo-2-propynyl butylcarbamate (IPBC)] | 84.34 ± 0.48 | 89 ± 0.94 |
| C#Cc1cccc(Nc2ncnc3cc(OCCOC)c(OCCOC)cc23)c1 [Erlotinib] + CCCCNC(=O)OCC#CI [3-iodo-2-propynyl butylcarbamate (IPBC)] | 98.2 ± 11 | 99.3 ± 3 |
| CC(C)Nc1cccnc1N1CCN(C(=O)c2cc3cc(NS(C)(=O)=O)ccc3[nH]2)CC1 [Delavirdine] + CCCCNC(=O)OCC#CI [3-iodo-2-propynyl butylcarbamate (IPBC)] | 95.5 ± 8.4 | 97.7 ± 3.8 |
| NS(=O)(=O)c1cc2c(cc1Cl)NC(C(Cl)Cl)NS2(=O)=O (stereo not given) [Trichlormethiazide] + CCCCNC(=O)OCC#CI [3-iodo-2-propynyl butylcarbamate (IPBC)] | 97.5 ± 16 | 97.3 ± 12 |

| SMILES | growth yield (40 h) [%] | growth yield (72 h) [%] |
| --- | --- | --- |
| COc1ccccc1Oc1c(NS(=O)(=O)c2ccc(C(C)(C)C)cc2)nc(-c2ncccn2)nc1OCCO [Bosentan] + CCCCNC(=O)OCC#CI [3-iodo-2-propynyl butylcarbamate (IPBC)] | 117 ± 2.4 | 114 ± 5.8 |
| Nc1ccccc1S(N)(=O)=O [2-Aminobenzenesulfonamide] + CCCCNC(=O)OCC#CI [3-iodo-2-propynyl butylcarbamate (IPBC)] | 88.79 ± 0.48 | 92.9 ± 2.7 |
| CN(C)CCC=C1c2ccccc2COc2ccccc21 [Doxepin hydrochloride] + CCCCNC(=O)OCC#CI [3-iodo-2-propynyl butylcarbamate (IPBC)] | 73.7 ± 2.2 | 92.4 ± 0.94 |
| CCC[C@@H]1C[C@@H](C(=O)N[C@@H]([C@H]2O[C@H](SC)[C@H](O)[C@@H](O)[C@H]2O)[C@H](C)Cl)N(C)C1 [Clindamycin hydrochloride] + CCCCNC(=O)OCC#CI [3-iodo-2-propynyl butylcarbamate (IPBC)] | 90.7 ± 8.4 | 96.2 ± 5.3 |
| O=C(N[C@H](CO)[C@H](O)c1ccc([N+](=O)[O-])cc1)C(Cl)Cl [Chloramphenicol] + CCCCNC(=O)OCC#CI [3-iodo-2-propynyl butylcarbamate (IPBC)] | 92.6 ± 6.8 | 92.7 ± 6.5 |
| C=C1/C(=C\C=C2/CCC[C@]3(C)[C@@H]([C@H](C)CCCC(C)C)CC[C@@H]23)C[C@@H](O)C[C@@H]1O [Alfacalcidol] + CCCCNC(=O)OCC#CI [3-iodo-2-propynyl butylcarbamate (IPBC)] | 99.8 ± 3.5 | 104 ± 2.3 |
| Cc1ccc2c(c1)c1c3n2CCNC3CCC1 (stereo not given) [Pirlindole mesylate] + CCCCNC(=O)OCC#CI [3-iodo-2-propynyl butylcarbamate (IPBC)] | 83.23 ± 0.32 | 97.64 ± 0.94 |
| CCN(CC)CCNC(=O)c1cc(Cl)c(N)cc1OC [Metoclopramide monohydrochloride] + CCCCNC(=O)OCC#CI [3-iodo-2-propynyl butylcarbamate (IPBC)] | 86.7 ± 4.1 | 95.4 ± 3.4 |
| CCOc1ccc2ccccc2c1C(=O)N[C@@H]1C(=O)N2[C@@H]1SC(C)(C)[C@@H]2C(=O)O [Nafcillin sodium salt monohydrate] + CCCCNC(=O)OCC#CI [3-iodo-2-propynyl butylcarbamate (IPBC)] | 101 ± 14 | 98 ± 9.2 |
| Cn1cnc2c1c(=O)[nH]c(=O)n2C [Theobromine] + CCCCNC(=O)OCC#CI [3-iodo-2-propynyl butylcarbamate (IPBC)] | 95.8 ± 8.7 | 98.5 ± 5.3 |
| C[N+]1(C)CCOC(O)(c2ccc(-c3ccc(C4(O)C[N+](C)(C)CCO4)cc3)cc2)C1 (stereo not given) [Hemicholinium bromide] + CCCCNC(=O)OCC#CI [3-iodo-2-propynyl butylcarbamate (IPBC)] | 19.1 ± 0.64 | – |
| Oc1c(Cl)cc(Cl)c(Cl)c1Cc1c(O)c(Cl)cc(Cl)c1Cl [Hexachlorophene] + CCCCNC(=O)OCC#CI [3-iodo-2-propynyl butylcarbamate (IPBC)] | 19.4 ± 4.8 | 80.2 ± 2.6 |
| Cc1c(N(C)C)c(=O)n(-c2ccccc2)n1C [Amidopyrine] + CCCCNC(=O)OCC#CI [3-iodo-2-propynyl butylcarbamate (IPBC)] | 100 ± 4.3 | 101 ± 4.8 |
| COc1ccc(/C=C/C(=O)Nc2ccccc2C(=O)O)cc1OC [Tranilast] + CCCCNC(=O)OCC#CI [3-iodo-2-propynyl butylcarbamate (IPBC)] | 67.8 ± 1.4 | 84.84 ± 0.1 |
| CCOC(=O)C1=C(COCCN)NC(C)=C(C(=O)OC)C1c1ccccc1Cl (stereo not given) [Amlodipine] + CCCCNC(=O)OCC#CI [3-iodo-2-propynyl butylcarbamate (IPBC)] | 60.2 ± 3.3 | 99.4 ± 1.9 |
| CN1[C@@H]2CC[C@H]1C[C@@H](OC(=O)c1c[nH]c3ccccc13)C2 [Tropisetron hydrochloride] + CCCCNC(=O)OCC#CI [3-iodo-2-propynyl butylcarbamate (IPBC)] | 101.5 ± 0.16 | 102 |
| Cc1cccc(C)c1OCC(C)N (stereo not given) [Mexiletine hydrochloride] + CCCCNC(=O)OCC#CI [3-iodo-2-propynyl butylcarbamate (IPBC)] | 95.1 ± 3.6 | 100.8 ± 0.32 |
| Nc1nc(CC(=O)Nc2ccc(CCNC[C@H](O)c3ccccc3)cc2)cs1 [Mirabegron] + CCCCNC(=O)OCC#CI [3-iodo-2-propynyl butylcarbamate (IPBC)] | 111 ± 9.8 | 110 ± 4.3 |
| NC[C@@H]1O[C@H](O[C@H]2[C@@H](O)[C@H](O[C@@H]3[C@@H](O)[C@H](N)C[C@H](N)[C@H]3O[C@H]3O[C@H](CO)[C@@H](O)[C@H](O)[C@H]3N)O[C@@H]2CO)[C@H](N)[C@@H](O)[C@@H]1O [Paromomycin sulfate] + CCCCNC(=O)OCC#CI [3-iodo-2-propynyl butylcarbamate (IPBC)] | 84 ± 7.2 | 86.5 ± 2.2 |
